These results are taken from paper PMC6127106.

Amino acid sequences for entries named in this document (tags omitted). A change or cut given only in a name is not applied to a line headed by its entry.
UniProt P08514: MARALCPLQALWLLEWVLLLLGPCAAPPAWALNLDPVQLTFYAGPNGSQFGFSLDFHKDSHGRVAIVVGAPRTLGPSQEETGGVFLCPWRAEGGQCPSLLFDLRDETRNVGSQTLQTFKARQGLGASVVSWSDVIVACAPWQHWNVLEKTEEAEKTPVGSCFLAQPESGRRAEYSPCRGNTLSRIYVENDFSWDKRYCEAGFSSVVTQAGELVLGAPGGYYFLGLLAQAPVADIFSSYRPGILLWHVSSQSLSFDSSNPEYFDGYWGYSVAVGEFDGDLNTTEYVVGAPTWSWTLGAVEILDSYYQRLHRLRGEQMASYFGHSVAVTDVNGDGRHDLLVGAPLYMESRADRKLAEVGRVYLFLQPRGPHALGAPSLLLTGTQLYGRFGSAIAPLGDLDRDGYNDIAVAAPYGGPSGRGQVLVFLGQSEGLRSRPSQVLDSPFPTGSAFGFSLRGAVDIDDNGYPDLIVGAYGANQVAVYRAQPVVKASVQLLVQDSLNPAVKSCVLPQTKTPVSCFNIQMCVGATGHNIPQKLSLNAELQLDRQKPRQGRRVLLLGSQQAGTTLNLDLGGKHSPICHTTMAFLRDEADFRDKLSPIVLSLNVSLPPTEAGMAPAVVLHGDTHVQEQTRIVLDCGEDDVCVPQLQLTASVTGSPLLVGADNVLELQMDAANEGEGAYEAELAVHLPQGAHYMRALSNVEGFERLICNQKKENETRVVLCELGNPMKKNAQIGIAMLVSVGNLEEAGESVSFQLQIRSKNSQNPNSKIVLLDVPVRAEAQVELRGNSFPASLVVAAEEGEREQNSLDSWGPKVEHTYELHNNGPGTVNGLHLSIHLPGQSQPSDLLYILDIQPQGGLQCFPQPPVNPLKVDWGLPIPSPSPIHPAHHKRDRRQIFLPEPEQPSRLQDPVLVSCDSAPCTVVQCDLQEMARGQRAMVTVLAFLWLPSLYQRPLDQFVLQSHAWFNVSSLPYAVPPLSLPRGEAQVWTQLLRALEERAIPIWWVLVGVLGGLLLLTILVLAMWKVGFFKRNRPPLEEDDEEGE
UniProt P05106: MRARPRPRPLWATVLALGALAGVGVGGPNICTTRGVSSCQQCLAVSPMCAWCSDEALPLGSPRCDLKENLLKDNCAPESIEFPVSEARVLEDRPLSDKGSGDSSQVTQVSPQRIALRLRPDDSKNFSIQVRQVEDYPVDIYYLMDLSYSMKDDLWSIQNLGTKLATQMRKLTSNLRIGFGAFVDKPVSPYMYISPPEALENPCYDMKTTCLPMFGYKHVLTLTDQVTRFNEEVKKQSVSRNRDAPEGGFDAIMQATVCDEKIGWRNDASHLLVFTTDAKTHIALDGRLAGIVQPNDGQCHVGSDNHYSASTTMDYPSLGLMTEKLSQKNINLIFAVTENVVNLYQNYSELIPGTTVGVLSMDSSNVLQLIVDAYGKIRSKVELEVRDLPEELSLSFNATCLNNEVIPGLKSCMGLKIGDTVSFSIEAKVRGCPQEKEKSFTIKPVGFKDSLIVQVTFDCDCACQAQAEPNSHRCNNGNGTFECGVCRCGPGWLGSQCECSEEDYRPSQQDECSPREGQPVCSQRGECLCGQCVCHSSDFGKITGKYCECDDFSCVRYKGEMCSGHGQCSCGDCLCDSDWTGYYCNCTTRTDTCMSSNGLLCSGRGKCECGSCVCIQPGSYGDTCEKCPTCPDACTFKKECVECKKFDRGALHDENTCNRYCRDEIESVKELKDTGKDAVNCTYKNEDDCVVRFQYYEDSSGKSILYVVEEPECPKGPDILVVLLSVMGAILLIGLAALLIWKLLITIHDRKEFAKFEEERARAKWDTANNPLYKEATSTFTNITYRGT
UniProt Q9QUM0: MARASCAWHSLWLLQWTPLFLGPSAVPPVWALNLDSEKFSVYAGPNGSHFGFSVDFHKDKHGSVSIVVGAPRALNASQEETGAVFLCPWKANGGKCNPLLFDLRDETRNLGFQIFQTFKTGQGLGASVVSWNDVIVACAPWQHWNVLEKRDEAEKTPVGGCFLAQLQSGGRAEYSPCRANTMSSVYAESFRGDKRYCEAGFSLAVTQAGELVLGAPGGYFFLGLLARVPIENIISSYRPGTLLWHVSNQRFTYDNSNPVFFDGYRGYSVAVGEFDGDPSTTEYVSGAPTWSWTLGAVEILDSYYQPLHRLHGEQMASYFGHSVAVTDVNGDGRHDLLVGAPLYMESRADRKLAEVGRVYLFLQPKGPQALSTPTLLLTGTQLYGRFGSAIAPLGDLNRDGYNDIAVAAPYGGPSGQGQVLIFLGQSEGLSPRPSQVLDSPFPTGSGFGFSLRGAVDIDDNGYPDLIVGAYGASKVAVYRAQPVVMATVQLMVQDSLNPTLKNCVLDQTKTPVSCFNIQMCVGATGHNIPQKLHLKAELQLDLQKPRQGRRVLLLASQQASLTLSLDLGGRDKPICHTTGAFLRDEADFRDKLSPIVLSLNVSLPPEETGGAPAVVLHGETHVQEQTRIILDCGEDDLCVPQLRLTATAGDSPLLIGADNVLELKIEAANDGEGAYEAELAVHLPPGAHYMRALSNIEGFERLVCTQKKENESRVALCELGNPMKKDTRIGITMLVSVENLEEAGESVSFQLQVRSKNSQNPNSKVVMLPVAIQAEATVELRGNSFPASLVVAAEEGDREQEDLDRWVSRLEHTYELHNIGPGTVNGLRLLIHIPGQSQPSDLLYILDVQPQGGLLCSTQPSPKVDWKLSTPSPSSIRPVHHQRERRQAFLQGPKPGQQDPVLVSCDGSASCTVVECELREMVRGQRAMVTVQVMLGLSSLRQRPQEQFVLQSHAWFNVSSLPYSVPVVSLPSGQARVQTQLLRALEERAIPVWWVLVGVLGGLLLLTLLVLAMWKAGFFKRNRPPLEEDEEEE
UniProt O54890: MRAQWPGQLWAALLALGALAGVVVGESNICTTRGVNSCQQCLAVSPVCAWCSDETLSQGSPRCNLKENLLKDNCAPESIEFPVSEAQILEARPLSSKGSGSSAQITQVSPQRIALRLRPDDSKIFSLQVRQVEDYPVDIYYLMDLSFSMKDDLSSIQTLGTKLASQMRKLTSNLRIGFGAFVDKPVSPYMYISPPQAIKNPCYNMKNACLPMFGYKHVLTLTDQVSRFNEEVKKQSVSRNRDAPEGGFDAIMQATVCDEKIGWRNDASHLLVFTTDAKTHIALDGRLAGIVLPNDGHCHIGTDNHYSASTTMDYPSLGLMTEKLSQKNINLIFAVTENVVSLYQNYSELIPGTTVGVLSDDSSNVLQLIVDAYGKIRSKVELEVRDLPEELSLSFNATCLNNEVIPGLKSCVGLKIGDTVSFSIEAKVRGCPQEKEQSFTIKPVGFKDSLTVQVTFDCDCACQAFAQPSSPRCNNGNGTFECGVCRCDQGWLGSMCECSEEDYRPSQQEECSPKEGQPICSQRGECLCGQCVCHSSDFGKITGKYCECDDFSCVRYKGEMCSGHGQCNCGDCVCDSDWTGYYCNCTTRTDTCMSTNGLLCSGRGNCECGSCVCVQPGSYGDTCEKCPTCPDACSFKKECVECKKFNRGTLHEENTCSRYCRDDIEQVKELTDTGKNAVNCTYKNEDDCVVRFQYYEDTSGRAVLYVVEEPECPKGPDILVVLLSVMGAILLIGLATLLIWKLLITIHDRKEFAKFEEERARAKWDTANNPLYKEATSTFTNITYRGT
UniProt P08648: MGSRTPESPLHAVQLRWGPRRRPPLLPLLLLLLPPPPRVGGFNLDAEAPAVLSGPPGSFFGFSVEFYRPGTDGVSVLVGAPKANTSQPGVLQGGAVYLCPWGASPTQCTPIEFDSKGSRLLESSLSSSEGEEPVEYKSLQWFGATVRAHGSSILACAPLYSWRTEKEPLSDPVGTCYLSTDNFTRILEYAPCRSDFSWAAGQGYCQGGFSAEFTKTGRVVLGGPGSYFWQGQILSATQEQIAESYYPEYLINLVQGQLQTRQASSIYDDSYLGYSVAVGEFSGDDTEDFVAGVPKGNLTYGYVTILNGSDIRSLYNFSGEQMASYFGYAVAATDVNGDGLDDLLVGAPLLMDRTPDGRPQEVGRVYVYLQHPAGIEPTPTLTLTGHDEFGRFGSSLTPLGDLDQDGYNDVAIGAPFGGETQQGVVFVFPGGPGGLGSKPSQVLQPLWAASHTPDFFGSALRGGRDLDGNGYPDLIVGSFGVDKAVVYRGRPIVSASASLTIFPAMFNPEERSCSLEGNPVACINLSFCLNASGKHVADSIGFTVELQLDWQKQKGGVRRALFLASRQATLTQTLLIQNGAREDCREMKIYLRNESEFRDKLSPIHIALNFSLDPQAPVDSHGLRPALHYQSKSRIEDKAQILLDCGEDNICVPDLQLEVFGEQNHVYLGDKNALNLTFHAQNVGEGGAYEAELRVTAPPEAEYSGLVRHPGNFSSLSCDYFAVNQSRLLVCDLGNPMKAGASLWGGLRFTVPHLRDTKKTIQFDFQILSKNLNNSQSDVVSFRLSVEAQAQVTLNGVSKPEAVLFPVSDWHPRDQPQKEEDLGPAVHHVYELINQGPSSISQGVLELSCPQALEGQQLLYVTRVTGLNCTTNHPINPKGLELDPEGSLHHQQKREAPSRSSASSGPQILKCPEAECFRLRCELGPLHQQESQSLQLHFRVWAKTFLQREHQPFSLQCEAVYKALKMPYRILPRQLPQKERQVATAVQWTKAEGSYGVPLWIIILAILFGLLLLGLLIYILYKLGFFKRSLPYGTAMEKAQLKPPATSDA
UniProt P06756: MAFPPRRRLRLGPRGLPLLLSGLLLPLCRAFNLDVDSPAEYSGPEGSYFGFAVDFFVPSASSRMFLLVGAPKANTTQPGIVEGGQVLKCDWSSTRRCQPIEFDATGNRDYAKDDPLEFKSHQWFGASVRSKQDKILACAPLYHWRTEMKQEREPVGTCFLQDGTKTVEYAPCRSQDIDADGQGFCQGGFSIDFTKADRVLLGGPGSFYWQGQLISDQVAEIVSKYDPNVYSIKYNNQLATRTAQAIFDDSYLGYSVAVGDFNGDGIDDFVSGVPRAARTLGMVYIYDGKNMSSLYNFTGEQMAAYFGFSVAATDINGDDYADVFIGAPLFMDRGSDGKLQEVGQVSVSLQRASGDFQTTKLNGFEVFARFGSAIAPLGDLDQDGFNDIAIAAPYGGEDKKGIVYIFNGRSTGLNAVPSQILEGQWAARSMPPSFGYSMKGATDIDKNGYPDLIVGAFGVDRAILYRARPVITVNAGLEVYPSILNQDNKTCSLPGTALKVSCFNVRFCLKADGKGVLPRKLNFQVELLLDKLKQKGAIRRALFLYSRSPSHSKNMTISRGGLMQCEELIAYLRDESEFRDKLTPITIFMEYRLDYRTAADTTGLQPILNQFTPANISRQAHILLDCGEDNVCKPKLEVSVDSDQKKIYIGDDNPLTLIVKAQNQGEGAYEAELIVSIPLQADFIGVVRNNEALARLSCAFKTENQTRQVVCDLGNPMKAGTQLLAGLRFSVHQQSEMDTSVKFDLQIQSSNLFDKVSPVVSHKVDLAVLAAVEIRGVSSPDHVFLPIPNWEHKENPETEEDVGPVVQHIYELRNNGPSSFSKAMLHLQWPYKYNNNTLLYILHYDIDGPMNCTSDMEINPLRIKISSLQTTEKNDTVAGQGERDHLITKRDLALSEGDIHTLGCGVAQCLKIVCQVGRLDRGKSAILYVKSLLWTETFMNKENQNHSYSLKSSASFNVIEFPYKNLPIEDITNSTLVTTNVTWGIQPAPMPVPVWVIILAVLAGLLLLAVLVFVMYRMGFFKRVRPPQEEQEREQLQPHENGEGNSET

Results are given in words; binding and its absence hold for the method and conditions named. Some binding calls cover weakened binding; strength is not graded here.

Assay [1] concerns the target αIIbβ3 integrin on human platelets (human (endogenous in human platelets)) (UniProt P08514+P05106). As to the kind of experiment: flow cytometry on cells; human gel-filtered platelets (1 × 10^8) with increasing doses of apoA-IV or BSA, then FITC-Fg 15 min at room temperature; TRAP 250 µM; fixed; only the binder purified. In general terms: In flow cytometry, cells or beads pass a laser one at a time.

For assay [2], the target named is T1, mouse platelet αIIbβ3 integrin (β3 integrin on mouse platelets) (mouse (endogenous in mouse platelets)) (UniProt Q9QUM0+O54890). As to the kind of experiment: condition: only quiescent platelets (not activated by ADP or collagen); flow cytometry on cells; as a2, but quiescent (resting) platelets in mouse PRP.
Assay [3] has as its target T1, mouse platelet αIIbβ3 integrin (β3 integrin on mouse platelets) (mouse (endogenous in mouse platelets)). As to the kind of experiment: flow cytometry on cells; mouse PRP; platelets activated with ADP (20 or 50 µM) or collagen (5 µg/mL), fixed, goat anti-apoA-IV (N-20) and FITC anti-goat IgG; β3-deficient platelets and anti-β3 mAb M1 as controls.
The target of assay [4] is αIIbβ3 integrin on platelets used as BFP targets (UniProt P08514). As to the kind of experiment: Biomembrane Force Probe adhesion frequency assay; as a5, but resting platelets as target; 1 mM Ca2+; only the binder purified.
Assay [5] concerns the target recombinant α5β1-Fc ectodomain (UniProt P08648). In words: Biomembrane Force Probe adhesion frequency assay; biotinylated apoA-IV on a streptavidin probe bead; beads with purified integrins as targets; 1 mM Ca2+; complete inhibition by mAb M1; both purified.
The target in assay [6] is recombinant αVβ3 ectodomain with a hexa-Histidine tag at the C-terminus (UniProt P06756). The assay is described as above.
The target of assay [7] is αIIbβ3 integrin on platelets used as BFP targets (UniProt P08514). As to the kind of experiment: Biomembrane Force Probe adhesion frequency assay; biotinylated apoA-IV on a streptavidin probe bead; ADP-treated platelet as target; 1 mM Ca2+; 50 cycles a pair; complete inhibition by mAb M1; only the binder purified.
Assay [8] concerns the target GPIb-IX complex expressed on CHO cells (UniProt P07359). In words: Biomembrane Force Probe adhesion frequency assay; biotinylated apoA-IV on a streptavidin probe bead; cells of lines expressing αIIbβ3, GPIb-IX or αMβ2 as targets; complete inhibition by mAb M1; only the binder purified.
For assay [9], the target named is αIIbβ3 integrin expressed on CHO cells (UniProt P08514). Described as above.

B1: recombinant human apoA-IV (ligand, UniProt P06727 21-396)
chain: EVSADQVATVMWDYFSQLSNNAKEAVEHLQKSELTQQLNALFQDKLGEVNTYAGDLQKKLVPFATELHERLAKDSEKLKEEIGKELEELRARLLPHANEVSQKIGDNLRELQQRLEPYADQLRTQVSTQAEQLRRQLTPYAQRMERVLRENADSLQASLRPHADELKAKIDQNVEELKGRLTPYADEFKVKIDQTVEELRRSLAPYAQDTQEKLNHQLEGLTFQMKKNAEELKARISASAEELRQRLAPLAEDVRGNLRGNTEGLQKSLAELGGHLDQQVEEFRRRVEPYGENFNKALVQQMEQLRQKLGPHAGDVEGHLSFLEKDLRDKVNSFFSTFKEKESQDKTLSLPELEQQQEQQQEQQQEQVQMLAPLES
For B1, the binding result in assay [1] is recorded as “binds”.

B2: mouse plasma apoA-IV (protein, UniProt P06728 21-395)
chain: EVTSDQVANVVWDYFTQLSNNAKEAVEQFQKTDVTQQLSTLFQDKLGDASTYADGVHNKLVPFVVQLSGHLAQETERVKEEIKKELEDLRDRMMPHANKVTQTFGENMQKLQEHLKPYAVDLQDQINTQTQEMKLQLTPYIQRMQTTIKENVDNLHTSMMPLATNLKDKFNRNMEELKGHLTPRANELKATIDQNLEDLRRSLAPLTVGVQEKLNHQMEGLAFQMKKNAEELQTKVSAKIDQLQKNLAPLVEDVQSKVKGNTEGLQKSLEDLNRQLEQQVEEFRRTVEPMGEMFNKALVQQLEQFRQQLGPNSGEVESHLSFLEKSLREKVNSFMSTLEKKGSPDQPQALPLPEQAQEQAQEQAQEQVQPKPLES
Take B2: the binding result in assay [2] is listed as “no binding”; in assay [3] it was “binds”.

B3: C-terminal biotinylated recombinant human apoA-IV (apoA-IV-GGC) (ligand, UniProt P06727 21-396)
chain: EVSADQVATVMWDYFSQLSNNAKEAVEHLQKSELTQQLNALFQDKLGEVNTYAGDLQKKLVPFATELHERLAKDSEKLKEEIGKELEELRARLLPHANEVSQKIGDNLRELQQRLEPYADQLRTQVSTQAEQLRRQLTPYAQRMERVLRENADSLQASLRPHADELKAKIDQNVEELKGRLTPYADEFKVKIDQTVEELRRSLAPYAQDTQEKLNHQLEGLTFQMKKNAEELKARISASAEELRQRLAPLAEDVRGNLRGNTEGLQKSLAELGGHLDQQVEEFRRRVEPYGENFNKALVQQMEQLRQKLGPHAGDVEGHLSFLEKDLRDKVNSFFSTFKEKESQDKTLSLPELEQQQEQQQEQQQEQVQMLAPLESGGC
modifications: maleimide-PEG2-biotin on the C-terminal cysteine of the GlyGlyCys linker
Take B3: the binding entry in assay [4] was “binds weakly”; in [5], “no binding”; in assay [6] it was “no binding”; in [7] it was “binds”; in [8], “no binding”; in [9] it was “binds”.
